{
  "source": "PubChem BioAssay AID686979",
  "about": "(National Center for Advancing Translational Sciences (NCATS), 2013)",
  "note": "Out of some 420,000 compounds screened, about 50,000 (12%) were called active. Inconclusive means that the source gave no clear call. Such entries were picked first, then a sample of the others. Calls follow the shape of the dose curve; as a rule, active = well fitted inhibition curve with a large enough effect; inconclusive = small, poorly fitted or top-dose-only effect; inactive = flat fitted curve, though single readings scatter. Potencies of inconclusive entries are left out as doubtful fits. % is scaled to controls: 0 for no effect and ±100 for the full control effect; potency is read from the fitted curve at half-maximal effect; tags tell the direction and shape of the fitted curve.",
  "data": [
    {"assay": "qHTS for Inhibitors of human tyrosyl-DNA phosphodiesterase 1 (TDP1): qHTS in cells in presence of CPT; also: nearly all actives have a fitted effect of over 55% in size", "conditions": "chicken DT40 Tdp1-/-;hTDP1 cells + 20 nM CPT, ATP luminescence, 48 h; activity change, negative = growth inhibition: at 46.2 µM (top of the series) unless noted", "how_it_was_run": "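Cell growth measured by CellTiter-Glo luminescence after a minimum 48 h, 37 C compound exposure with 20 nM CPT in Tdp1-knockout DT40 cells stably expressing hTDP1, seeded 400/well; qHTS titration format.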", "values": [
      {"smiles": "CC1=C(C(=O)OCCBr)C(c2cccc3ccccc23)NC(=O)N1", "note": "(stereo not given)", "Potency": "inconclusive [inhibitor, single point]"},
      {"smiles": "CCOc1ccc(CCNC(=O)Cn2c(=O)c3cccn3c3ccc(F)cc32)cc1OCC", "Potency": "inconclusive [inhibitor, single point]"},
      {"smiles": "COC(=O)c1ccc(Cn2c(SCc3ccccc3F)nc3ccncc32)cc1", "Potency": "inconclusive [inhibitor, single point]"},
      {"smiles": "CC1CCCN(C(=O)c2cccc(S(=O)(=O)NCc3ccccc3)c2)C1", "note": "(stereo not given)", "Potency": "inconclusive [inhibitor, single point]"},
      {"smiles": "COc1ccc(-c2cc3ccc(O)c(CN4CCCC(C)C4)c3oc2=O)cc1", "note": "(stereo not given)", "Potency": "inconclusive [inhibitor, single point]"},
      {"smiles": "CCOC(=O)c1c(NC(=O)CC)sc(C(=O)N2CCCCC2)c1C", "Potency": "inactive"},
      {"smiles": "O=C1C(Cl)=C(NCCc2ccccc2)C(=O)c2ccccc21", "Potency": "active: 0.82 µM"},
      {"smiles": "C(=C\\c1ccccc1)/CN1CCN(C(c2cc3ccccc3o2)c2nnnn2Cc2ccccc2)CC1", "note": "(stereo not given)", "Potency": "inconclusive [inhibitor, single point]"},
      {"smiles": "Cn1ncc(Br)c1C(=O)Nc1c(F)c(F)cc(F)c1F", "Potency": "inconclusive [inhibitor, partial curve]"},
      {"smiles": "Cc1cc(N/N=C/c2ccccc2O)c2ccccc2n1", "Potency": "active: 16.4 µM"},
      {"smiles": "COC(=O)c1ccc(NC(=O)c2ccccc2N(C)S(=O)(=O)c2ccccc2)cc1", "Potency": "inconclusive [inhibitor, single point]"},
      {"smiles": "C=CCn1c(SCC(=O)c2cccs2)nc2sc(C)cc2c1=O", "Potency": "inconclusive [inhibitor, single point]"},
      {"smiles": "CCOC(=O)N1CCN(C(=O)C(NC(=O)c2ccc(C(C)(C)C)cc2)C(C)C)CC1", "note": "(stereo not given)", "Potency": "active: 8.2 µM"},
      {"smiles": "O=C(c1cccs1)N1CCN(S(=O)(=O)c2cccc(Cl)c2Cl)CC1", "Potency": "inconclusive [inhibitor, single point]"},
      {"smiles": "Cc1ccc(Cl)cc1-n1ncc2c(NCc3ccc(F)cc3)ncnc21", "Potency": "inconclusive [inhibitor, single point]"},
      {"smiles": "O=S(=O)(c1ccc(SCc2ccccc2F)nc1)N1CCCC1", "Potency": "inactive"},
      {"smiles": "COc1cc(NC(=S)NCCc2c[nH]c3ccccc23)c(OC)cc1Cl", "Potency": "inconclusive [inhibitor, single point]"},
      {"smiles": "O=C(Nc1ccccc1)c1ccccc1O", "Potency": "inconclusive [inhibitor, partial curve, poor fit]"},
      {"smiles": "COc1ccc(OCCn2c(C(C)Oc3ccccc3)nc3ccccc32)cc1", "note": "(stereo not given)", "Potency": "inconclusive [inhibitor, single point]"},
      {"smiles": "O=C(Oc1ccc(Cl)c2cccnc12)c1ccco1", "Potency": "inconclusive [inhibitor, single point]"},
      {"smiles": "Cc1ccnn1CCC(=O)N1CCCC(Nc2ccc(C(C)C)cc2)C1", "note": "(stereo not given)", "Potency": "active: 20.6 µM"},
      {"smiles": "CCOc1ccc(C(=O)N2CCN(c3ccccc3)CC2)cc1OCC", "Potency": "inconclusive [inhibitor, single point]"},
      {"smiles": "COc1ccc(Cc2nnc(NC(=O)C(C)(C)C)s2)cc1", "Potency": "inactive"},
      {"smiles": "O=C(O)c1cc(Cl)n[nH]c1=O", "Potency": "inactive"},
      {"smiles": "O=C(CNC(=O)c1ccc(OC(F)F)cc1)NC1CCCc2ccccc21", "note": "(stereo not given)", "Potency": "inconclusive [inhibitor, single point]"},
      {"smiles": "O=C(NC1CCCC1)C(c1ccccc1)N(Cc1ccc2c(c1)OCO2)C(=O)Cc1cccs1", "note": "(stereo not given)", "Potency": "inconclusive [inhibitor, single point]"},
      {"smiles": "C[C@@H]1CN([C@@H](C)CO)C(=O)CCCn2nncc2CO[C@H]1CN(C)C(=O)Nc1ccc(C(F)(F)F)cc1", "activity change, negative = growth inhibition": "inconclusive: -30.5% [inhibitor]"},
      {"smiles": "CCc1cccc(C)c1NC(=S)NCc1cccn1C", "Potency": "active: 20.6 µM"},
      {"smiles": "CCCN(CCC)C(=O)CN1C(=O)CSc2ccc(S(=O)(=O)N3CCC(C)CC3)cc21", "Potency": "inconclusive [inhibitor, single point]"},
      {"smiles": "CCOc1ccc(CCN2C(=O)C(=O)N([C@@H](Cc3ccccc3)CN3CCC[C@H]3CN3C(=O)C(=O)NC[C@@H]3Cc3ccccc3)C[C@@H]2Cc2ccccc2)cc1", "Potency": "inconclusive [inhibitor, single point]"},
      {"smiles": "CCN(CC)S(=O)(=O)c1ccc2c(c1)nc(CN(C)C(=O)Nc1cccc(Cl)c1)n2C", "Potency": "inconclusive [inhibitor, single point]"},
      {"smiles": "Cc1cccc(S(=O)(=O)NC(=O)C2(C)CCN2C(=O)c2ccccc2)c1", "note": "(stereo not given)", "Potency": "inactive"},
      {"smiles": "COc1cccc(OC)c1OCCOc1ccccc1OC(C)C", "Potency": "inconclusive [inhibitor, partial curve]"},
      {"smiles": "Oc1ccc(/C=N/N2CCN(C3c4ccccc4-c4ccccc43)CC2)cc1O", "Potency": "active: 8.2 µM"},
      {"smiles": "COc1ccc(-n2nnc(-c3nsc(NC(=O)c4cccs4)n3)c2C)cc1OC", "Potency": "inactive"},
      {"smiles": "CC1CN(C(=O)COC(=O)CSc2ccc([N+](=O)[O-])cc2)CC(C)O1", "note": "(stereo not given)", "Potency": "inactive"},
      {"smiles": "CCN(CC)CCCOc1nc(C)nc2c1oc1ccccc12", "Potency": "inactive"},
      {"smiles": "CCOc1ccc(CCNC(=O)COC(=O)c2ccc(C)c(S(=O)(=O)N3CCOCC3)c2)cc1OCC", "Potency": "inactive"},
      {"smiles": "CCOc1ccccc1/C=N/NC(=O)c1cccc(S(=O)(=O)N(CC)CC)c1", "Potency": "inactive"},
      {"smiles": "O=C(Nc1ccc(F)cc1)C(c1ccnc2ccccc12)N1CCN(CC(=O)N2CCCC2)CC1", "note": "(stereo not given)", "Potency": "inactive"},
      {"smiles": "O=C(CCN1C(=O)/C(=C/C=C/c2ccccc2)SC1=S)Nc1nccs1", "Potency": "inconclusive [inhibitor, partial curve]"},
      {"smiles": "CCCCn1c(N)c(N(CC(C)C)C(=O)CSc2nn(-c3ccc(F)cc3)c(=S)s2)c(=O)[nH]c1=O", "Potency": "inconclusive [inhibitor, single point]"},
      {"smiles": "COc1ccc(-c2cn3c(n2)sc2cc(C(=O)NC4CCCCCC4)ccc23)cc1", "Potency": "inconclusive [inhibitor, partial curve]"},
      {"smiles": "CCCCCCCC[n+]1cccc(C(=O)N2c3c(nc(N)[nH]c3=O)NC(C)C2C)c1", "note": "(stereo not given)", "Potency": "inactive"},
      {"smiles": "Cc1ccc(OCC(=O)NCCc2nc3ccccc3[nH]2)c(C)c1", "Potency": "inconclusive [inhibitor, single point]"}
    ]}
  ]
}
